# Experimental data from the supplement of paper PMC12423691.
# Some of the results follow. Binding of human transcription factors and regulators to the viral nucleoprotein by AlphaScreen, crude cell-free proteins, amounts not normalised, one pass. Fold of the Venus control; higher = more signal. No active / inactive call. Single-pass screen; sequences are the whole Swiss-Prot entries looked up by name.
# B1: DEAF1, O75398 (protein)
# chain: MEDSDSAAKQLGLAEAAAVAAAAAVAAAAAAAAGGEAEEPVLSRDEDSEEDADSEAERETPRVTAVAVMAAEPGHMDMGAEALPGPDEAAAAAAFAEVTTVTVANVGAAADNVFTTSVANAASISGHVLSGRTALQIGDSLNTEKATLIVVHTDGSIVETTGLKGPAAPLTPGPQSPPTPLAPGQEKGGTKYNWDPSVYDSELPVRCRNISGTLYKNRLGSGGRGRCIKQGENWYSPTEFEAMAGRASSKDWKRSIRYAGRPLQCLIQDGILNPHAASCTCAACCDDMTLSGPVRLFVPYKRRKKENELPTTPVKKDSPKNITLLPATAATTFTVTPSGQITTSGALTFDRASTVEATAVISESPAQGDVFAGATVQEASVQPPCRASHPEPHYPGYQDSCQIAPFPEAALPTSHPKIVLTSLPALAVPPPTPTKAAPPALVNGLELSEPRSWLYLEEMVNSLLNTAQQLKTLFEQAKHASTYREAATNQAKIHADAERKEQSCVNCGREAMSECTGCHKVNYCSTFCQRKDWKDHQHICGQSAAVTVQADEVHVAESVMEKVTV
# B2: ZNF81, P51508 (protein)
# chain: MPANEDAPQPGEHGSACEVSVSFEDVTVDFSREEWQQLDSTQRRLYQDVMLENYSHLLSVGFEVPKPEVIFKLEQGEGPWTLEGEAPHQSCSDGKFGIKPSQRRISGKSTFHSEMEGEDTRDDSLYSILEELWQDAEQIKRCQEKHNKLLSRTTFLNKKILNTEWDYEYKDFGKFVHPSPNLILSQKRPHKRDSFGKSFKHNLDLHIHNKSNAAKNLDKTIGHGQVFTQNSSYSHHENTHTGVKFCERNQCGKVLSLKHSLSQNVKFPIGEKANTCTEFGKIFTQRSHFFAPQKIHTVEKPHELSKCVNVFTQKPLLSIYLRVHRDEKLYICTKCGKAFIQNSELIMHEKTHTREKPYKCNECGKSFFQVSSLLRHQTTHTGEKLFECSECGKGFSLNSALNIHQKIHTGERHHKCSECGKAFTQKSTLRMHQRIHTGERSYICTQCGQAFIQKAHLIAHQRIHTGEKPYECSDCGKSFPSKSQLQMHKRIHTGEKPYICTECGKAFTNRSNLNTHQKSHTGEKSYICAECGKAFTDRSNFNKHQTIHTGEKPYVCADCGRAFIQKSELITHQRIHTTEKPYKCPDCEKSFSKKPHLKVHQRIHTGEKPYICAECGKAFTDRSNFNKHQTIHTGDKPYKCSDCGKGFTQKSVLSMHRNIHT
# B3: CREB3L3, Q68CJ9 (protein)
# chain: MNTDLAAGKMASAACSMDPIDSFELLDLLFDRQDGILRHVELGEGWGHVKDQQVLPNPDSDDFLSSILGSGDSLPSSPLWSPEGSDSGISEDLPSDPQDTPPRSGPATSPAGCHPAQPGKGPCLSYHPGNSCSTTTPGPVIQVPEASVTIDLEMWSPGGRICAEKPADPVDLSPRCNLTVKDLLLSGSSGDLQQHHLGASYLLRPGAGHCQELVLTEDEKKLLAKEGITLPTQLPLTKYEERVLKKIRRKIRNKQSAQESRKKKKEYIDGLETRMSACTAQNQELQRKVLHLEKQNLSLLEQLKKLQAIVVQSTSKSAQTGTCVAVLLLSFALIILPSISPFGPNKTESPGDFAPVRVFSRTLHNDAASRVAADAVPGSEAPGPRPEADTTREESPGSPGADWGFQDTANLTNSTEELDNATLVLRNATEGLGQVALLDWVAPGPSTGSGRAGLEAAGDEL
# B4: ZNF501, Q96CX3 (protein)
# chain: MNSSQISLRMKHGRVNMQKKPSKCSECGKFFTQRSSLTQHQRIHRGEKPYVCSECGSCFRKQSNLTQHLRIHTGEKPYKCNECEKAFQTKAILVQHLRIHTGEKPYKCNECGKAFCQSPSLIKHQRIHTGEKPYKCTECGKAFSQSICLTRHQRSHSGDKPFKCNECGKAFNQSACLMQHQRIHSGEKPYTCTECGKAFTQNSSLVEHERTHTGEKLYKCSECEKTFRKQAHLSEHYRIHTGEKPYECVGCGKSFRHSSALLRHQRLHAGE
# B5: GTF2H2, Q13888 (protein)
# chain: MDEEPERTKRWEGGYERTWEILKEDESGSLKATIEDILFKAKRKRVFEHHGQVRLGMMRHLYVVVDGSRTMEDQDLKPNRLTCTLKLLEYFVEEYFDQNPISQIGIIVTKSKRAEKLTELSGNPRKHITSLKKAVDMTCHGEPSLYNSLSIAMQTLKHMPGHTSREVLIIFSSLTTCDPSNIYDLIKTLKAAKIRVSVIGLSAEVRVCTVLARETGGTYHVILDESHYKELLTHHVSPPPASSSSECSLIRMGFPQHTIASLSDQDAKPSFSMAHLDGNTEPGLTLGGYFCPQCRAKYCELPVECKICGLTLVSAPHLARSYHHLFPLDAFQEIPLEEYNGERFCYGCQGELKDQHVYVCAVCQNVFCVDCDVFVHDSLHCCPGCIHKIPAPSGV
# B6: RNF4, P78317 (protein)
# chain: MSTRKRRGGAINSRQAQKRTREATSTPEISLEAEPIELVETAGDEIVDLTCESLEPVVVDLTHNDSVVIVDERRRPRRNARRLPQDHADSCVVSSDDEELSRDRDVYVTTHTPRNARDEGATGLRPSGTVSCPICMDGYSEIVQNGRLIVSTECGHVFCSQCLRDSLKNANTCPTCRKKINHKRYHPIYI
# B7: CSRNP2, Q9H175 (protein)
# chain: MDAFTGSGLKRKFDDVDVGSSVSNSDDEISSSDSADSCDSLNPPTTASFTPTSILKRQKQLRRKNVRFDQVTVYYFARRQGFTSVPSQGGSSLGMAQRHNSVRSYTLCEFAQEQEVNHREILREHLKEEKLHAKKMKLTKNGTVESVEADGLTLDDVSDEDIDVENVEVDDYFFLQPLPTKRRRALLRASGVHRIDAEEKQELRAIRLSREECGCDCRLYCDPEACACSQAGIKCQVDRMSFPCGCSRDGCGNMAGRIEFNPIRVRTHYLHTIMKLELESKRQVSRPAAPDEEPSPTASCSLTGAQGSETQDFQEFIAENETAVMHLQSAEELERLKAEEDSSGSSASLDSSIESLGVCILEEPLAVPEELCPGLTAPILIQAQLPPGSSVLCFTENSDHPTASTVNSPSYLNSGPLVYYQVEQRPVLGVKGEPGTEEGSASFPKEKDLNVFSLPVTSLVACSSTDPAALCKSEVGKTPTLEALLPEDCNPEEPENEDFHPSWSPSSLPFRTDNEEGCGMVKTSQQNEDRPPEDSSLELPLAV
# B8: EDF1, O60869 (protein)
# chain: MAESDWDTVTVLRKKGPTAAQAKSKQAILAAQRRGEDVETSKKWAAGQNKQHSITKNTAKLDRETEELHHDRVTLEVGKVIQQGRQSKGLTQKDLATKINEKPQVIADYESGRAIPNNQVLGKIERAIGLKLRGKDIGKPIEKGPRAK
# B9: TAF6L, Q9Y6J9 (protein)
# chain: MSEREERRFVEIPRESVRLMAESTGLELSDEVAALLAEDVCYRLREATQNSSQFMKHTKRRKLTVEDFNRALRWSSVEAVCGYGSQEALPMRPAREGELYFPEDREVNLVELALATNIPKGCAETAVRVHVSYLDGKGNLAPQGSVPSAVSSLTDDLLKYYHQVTRAVLGDDPQLMKVALQDLQTNSKIGALLPYFVYVVSGVKSVSHDLEQLHRLLQVARSLFRNPHLCLGPYVRCLVGSVLYCVLEPLAASINPLNDHWTLRDGAALLLSHIFWTHGDLVSGLYQHILLSLQKILADPVRPLCCHYGAVVGLHALGWKAVERVLYPHLSTYWTNLQAVLDDYSVSNAQVKADGHKVYGAILVAVERLLKMKAQAAEPNRGGPGGRGCRRLDDLPWDSLLFQESSSGGGAEPSFGSGLPLPPGGAGPEDPSLSVTLADIYRELYAFFGDSLATRFGTGQPAPTAPRPPGDKKEPAAAPDSVRKMPQLTASAIVSPHGDESPRGSGGGGPASASGPAASESRPLPRVHRARGAPRQQGPGTGTRDVFQKSRFAPRGAPHFRFIIAGRQAGRRCRGRLFQTAFPAPYGPSPASRYVQKLPMIGRTSRPARRWALSDYSLYLPL
# B10: TCF20, Q9UGU0 (protein)
# chain: MQSFREQSSYHGNQQSYPQEVHGSSRLEEFSPRQAQMFQNFGGTGGSSGSSGSGSGGGRRGAAAAAAAMASETSGHQGYQGFRKEAGDFYYMAGNKDPVTTGTPQPPQRRPSGPVQSYGPPQGSSFGNQYGSEGHVGQFQAQHSGLGGVSHYQQDYTGPFSPGSAQYQQQASSQQQQQQVQQLRQQLYQSHQPLPQATGQPASSSSHLQPMQRPSTLPSSAAGYQLRVGQFGQHYQSSASSSSSSSFPSPQRFSQSGQSYDGSYNVNAGSQYEGHNVGSNAQAYGTQSNYSYQPQSMKNFEQAKIPQGTQQGQQQQQPQQQQHPSQHVMQYTNAATKLPLQSQVGQYNQPEVPVRSPMQFHQNFSPISNPSPAASVVQSPSCSSTPSPLMQTGENLQCGQGSVPMGSRNRILQLMPQLSPTPSMMPSPNSHAAGFKGFGLEGVPEKRLTDPGLSSLSALSTQVANLPNTVQHMLLSDALTPQKKTSKRPSSSKKADSCTNSEGSSQPEEQLKSPMAESLDGGCSSSSEDQGERVRQLSGQSTSSDTTYKGGASEKAGSSPAQGAQNEPPRLNASPAAREEATSPGAKDMPLSSDGNPKVNEKTVGVIVSREAMTGRVEKPGGQDKGSQEDDPAATQRPPSNGGAKETSHASLPQPEPPGGGGSKGNKNGDNNSNHNGEGNGQSGHSAAGPGFTSRTEPSKSPGSLRYSYKDSFGSAVPRNVSGFPQYPTGQEKGDFTGHGERKGRNEKFPSLLQEVLQGYHHHPDRRYSRSTQEHQGMAGSLEGTTRPNVLVSQTNELASRGLLNKSIGSLLENPHWGPWERKSSSTAPEMKQINLTDYPIPRKFEIEPQSSAHEPGGSLSERRSVICDISPLRQIVRDPGAHSLGHMSADTRIGRNDRLNPTLSQSVILPGGLVSMETKLKSQSGQIKEEDFEQSKSQASFNNKKSGDHCHPPSIKHESYRGNASPGAATHDSLSDYGPQDSRPTPMRRVPGRVGGREGMRGRSPSQYHDFAEKLKMSPGRSRGPGGDPHHMNPHMTFSERANRSSLHTPFSPNSETLASAYHANTRAHAYGDPNAGLNSQLHYKRQMYQQQPEEYKDWSSGSAQGVIAAAQHRQEGPRKSPRQQQFLDRVRSPLKNDKDGMMYGPPVGTYHDPSAQEAGRCLMSSDGLPNKGMELKHGSQKLQESCWDLSRQTSPAKSSGPPGMSSQKRYGPPHETDGHGLAEATQSSKPGSVMLRLPGQEDHSSQNPLIMRRRVRSFISPIPSKRQSQDVKNSSTEDKGRLLHSSKEGADKAFNSYAHLSHSQDIKSIPKRDSSKDLPSPDSRNCPAVTLTSPAKTKILPPRKGRGLKLEAIVQKITSPNIRRSASSNSAEAGGDTVTLDDILSLKSGPPEGGSVAVQDADIEKRKGEVASDLVSPANQELHVEKPLPRSSEEWRGSVDDKVKTETHAETVTAGKEPPGAMTSTTSQKPGSNQGRPDGSLGGTAPLIFPDSKNVPPVGILAPEANPKAEEKENDTVTISPKQEGFPPKGYFPSGKKKGRPIGSVNKQKKQQQPPPPPPQPPQIPEGSADGEPKPKKQRQRRERRKPGAQPRKRKTKQAVPIVEPQEPEIKLKYATQPLDKTDAKNKSFYPYIHVVNKCELGAVCTIINAEEEEQTKLVRGRKGQRSLTPPPSSTESKALPASSFMLQGPVVTESSVMGHLVCCLCGKWASYRNMGDLFGPFYPQDYAATLPKNPPPKRATEMQSKVKVRHKSASNGSKTDTEEEEEQQQQQKEQRSLAAHPRFKRRHRSEDCGGGPRSLSRGLPCKKAATEGSSEKTVLDSKPSVPTTSEGGPELELQIPELPLDSNEFWVHEGCILWANGIYLVCGRLYGLQEALEIAREMKCSHCQEAGATLGCYNKGCSFRYHYPCAIDADCLLHEENFSVRCPKHKPPLPCPLPPLQNKTAKGSLSTEQSERG
# Target: nucleoprotein N of Crimean-Congo hemorrhagic fever virus
# Assay: AlphaScreen luminescence signal relative to Venus negative control (fold); higher = stronger binding to CCHFV N
# Procedure: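 AlphaScreen binding of cell-free made, FLAG-GST-tagged human transcription factors and regulators (crude translation products) to biotinylated N protein; signal as fold of the FLAG-GST-Venus control. One pass.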
row,Binder,AlphaScreen luminescence signal
1,B1,2.74
2,B2,2.51
3,B3,1.86
4,B4,2.23
5,B5,2.42
6,B6,2
7,B7,1.63
8,B8,1.26
9,B9,1.77
10,B10,1.67
